In US20260176317A1 (RAKUTEN MEDICAL, published 2026):

T1: hIL-2Rβ:IL-2Rγ dimers (ACROBiosystems Cat. No. ILG-H5283) (human, UniProt P14784 27-239; P31785 23-254, limits assumed)
T1 construct: Commercial heterodimer used in solution as the analyte; also called IL-2Rβ/γc
T1 sequence (looked up) 1: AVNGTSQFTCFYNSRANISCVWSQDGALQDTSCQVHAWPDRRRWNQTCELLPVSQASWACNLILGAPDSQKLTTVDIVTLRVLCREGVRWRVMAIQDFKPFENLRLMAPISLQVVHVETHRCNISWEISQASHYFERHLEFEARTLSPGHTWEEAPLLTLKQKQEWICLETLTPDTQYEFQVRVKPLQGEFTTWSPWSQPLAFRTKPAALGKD
T1 sequence (looked up) 2: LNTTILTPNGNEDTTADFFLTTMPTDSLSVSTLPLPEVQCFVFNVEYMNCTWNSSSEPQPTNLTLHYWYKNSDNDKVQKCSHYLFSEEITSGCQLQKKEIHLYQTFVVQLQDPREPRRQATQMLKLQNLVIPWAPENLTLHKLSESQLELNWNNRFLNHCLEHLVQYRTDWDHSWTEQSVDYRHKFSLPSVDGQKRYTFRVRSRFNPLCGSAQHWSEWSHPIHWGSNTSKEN

B1: eIL-15-A complex (eIL-15-A in complex with IL-15Rα-hFc) (other)
chain 1: NWVNVISDLRYIESLISSMNIDACLYTESDVHPKCSVTAMLCFLLELQVISLESGDPSIHDTVENLIILANNSLSSNGNKTEDGCKECEELECKNIKEFLQSFVHIVQMFINTS
chain 2: ITCPPPMSVEHADIWVKSYSLYSRERYICNSGFKRKAGTSSLTECVLNKATNVAHWTTPSLKCIRDGGGSGGGS[human IgG1 Fc with C220S T250I (EU numbers) left out]
B2: eIL-15-C complex (eIL-15-C in complex with IL-15Rα-hFc) (other)
chain 1: NWVNVISDLREIESLIQNMHIDALLYTECDVHPKCKVTAMKCFLLELQVISLESGDAPIHDTVENLIILANNSLSSNGNKTEDGCKECEELEEKNIKEFLQCFVWIVQMFILTS
chain 2: B1 chain 2

Target: T1, hIL-2Rβ:IL-2Rγ dimers (ACROBiosystems …)
Experiment: BLI (Octet), IL-15 complex captured on anti-human IgG tips, hIL-2Rβ:IL-2Rγ dimer in solution, 25 C
Experimental: Binding affinities of exemplary human IL-15 variant complexes generated in Example 1B were determined by Bio-Layer Interferometry (BLI) using the Sartorius Octet® system. Wild-type IL-15 and IL-15 with a substitution of aspartic acid for asparagine at position 72 (IL-15_N72D), in complex with IL-15Rα-hFc, were also expressed and purified from mammalian cells, and tested as reference molecules. Briefly, the hIL-15 complexes were captured by anti-human IgG that were immobilized on an Octet optical tip. The tips were then immersed in solutions containing various serial dilutions (1:2) to 50 mM hIL-2Rβ:IL-2Rγ dimers (ACROBiosystems Cat. No. ILG-H5283) in PBS, 0.5% tween 20 at 25° C. The on rates of the interactions were calculated from the binding traces and the off rates were determined by fitting the dissociation data obtained in PBS, 0.05% tween 20 alone. Reference wells were used to subtract background noise.

Binder	Kd [nM]	kon [M⁻¹ s⁻¹]
B1	0.347	362000
B2	0.678	349000
